About 21,000 targets were measured; listed, in parts, are those with the largest changes and a random draw of the rest.
Compound: CC1Cc2ccccc2N1C(=O)C1CCCN(C1)C(=O)CCl (mixture of isomers) [TRIM25 ligand 11 (diastereomer mixture)]
Test: probe-labelled cysteine peptide fold change vs DMSO (competition) (log2 fold change); higher = less target engagement (more negative = stronger competition)
Conditions: 50 µM; THP-1; incubation time: 4 h
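Note: competitive chemoproteomic profiling in live THP-1 cells with an iodoacetamide desthiobiotin (IA-DTB) probe, comparing probe-labelled peptide intensities in compound-treated cells against DMSO-treated controls.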

MIF4GD_A9UHW6_150_EEEVDCLVLQLHR (UniProt A9UHW6)
UniProt A9UHW6, sequence (A9UHW6 whole entry, looked up): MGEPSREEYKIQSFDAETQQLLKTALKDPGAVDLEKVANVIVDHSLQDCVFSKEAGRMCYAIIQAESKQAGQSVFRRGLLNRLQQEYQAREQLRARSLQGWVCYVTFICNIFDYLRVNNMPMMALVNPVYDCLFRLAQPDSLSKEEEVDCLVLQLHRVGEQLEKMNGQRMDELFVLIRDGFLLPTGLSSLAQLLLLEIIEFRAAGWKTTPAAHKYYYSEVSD
probe-labelled cysteine peptide fold change: 0.181

Source: the supplement of paper PMC12067093, “Discovery and optimisation of a covalent ligand for TRIM25 and its application to targeted protein ubiquitination” (Chemical Science, 2025)
